# The other results are listed elsewhere or left out.
# B1: F17-L (Escherichia coli) (protein)
# chain: GPDDYVPSQIAVNTSTLPGVVIGPADAHTYPRVIGELAGTSNQYVFNGGAIALMRGKFTPALPKIGSITYTFHQGNSRDSSDFDIYDIGVSGLGIIIGMAGYWPATPLVPINSSGIYIDPVGANTNPNTYNGATASFGARLFVAFVATGRLPNGYITIPTRQLGTILLEAKRTSLNNKGLTAPVMLNGGRIQVQSQTHHHHHH
# Assays:
# Assay in all cases: glycan array binding signal (z-score within array); higher = stronger binding
# Settings in all cases: glycan notation: IUPAC condensed, linker removed
# [1] = target: Gal(a1-3)Gal(b1-4)GlcNAc(b1-2)Man(a1-3)[Gal(a1-3)Gal(b1-4)GlcNAc(b1-2)Man(a1-6)]Man(b1-4)GlcNAc(b1-4)GlcNAc
# How it was run: (§1)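 Glycan array binding is given as a within-array Z-score, which can be read as non-binding when negative. The arrays, 3228 of them, came from the Consortium for Functional Glycomics database and were retained only where the protein sequence was available. Z-scores were averaged across arrays of the same protein sequence at different concentrations or buffers and across linkers.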
# [2] = target: Gal(a1-3)Gal(b1-4)GlcNAc(b1-3)GalNAc
# How it was run: as §1
# [3] = target: Gal(a1-3)Gal(b1-4)GlcNAc(b1-6)GalNAc
# How it was run: as §1
# [4] = target: Gal(a1-3)Gal(b1-4)[Fuc(a1-3)]GlcNAc
# How it was run: as §1
# [5] = target: Gal(a1-3)Gal(b1-4)[Fuc(a1-3)]GlcNAc(b1-2)Man(a1-3)[Gal(a1-3)Gal(b1-4)[Fuc(a1-3)]GlcNAc(b1-2)Man(a1-6)]Man(b1-4)GlcNAc(b1-4)GlcNAc
# How it was run: as §1
# Gal(a1-3)GalNAc = target: Gal(a1-3)GalNAc
# How it was run: as §1
# [6] = target: Gal(a1-3)[Gal(a1-4)]Gal(b1-4)GlcNAc
# How it was run: as §1
# [7] = target: Gal(a1-4)Gal(b1-3)GlcNAc(b1-2)Man(a1-3)[Gal(a1-4)Gal(b1-3)GlcNAc(b1-2)Man(a1-6)]Man(b1-4)GlcNAc(b1-4)GlcNAc
# How it was run: as §1
# Gal(a1-4)Gal(b1-4)Glc = target: Gal(a1-4)Gal(b1-4)Glc
# How it was run: as §1
# Gal(a1-4)Gal(b1-4)GlcNAc = target: Gal(a1-4)Gal(b1-4)GlcNAc
# How it was run: as §1
# [8] = target: Gal(a1-4)Gal(b1-4)GlcNAc(b1-2)Man(a1-3)[Gal(a1-4)Gal(b1-4)GlcNAc(b1-2)Man(a1-6)]Man(b1-4)GlcNAc(b1-4)GlcNAc
# How it was run: as §1
# [9] = target: Gal(a1-4)Gal(b1-4)GlcNAc(b1-3)Gal(b1-4)Glc
# How it was run: as §1
# Gal(a1-4)GlcNAc = target: Gal(a1-4)GlcNAc
# How it was run: as §1
# Gal(a1-6)Glc = target: Gal(a1-6)Glc
# How it was run: as §1
# Gal(b1-2)Gal = target: Gal(b1-2)Gal
# How it was run: as §1
# Gal(b1-3)Gal = target: Gal(b1-3)Gal
# How it was run: as §1
# Gal(b1-3)Gal(b1-4)GlcNAc = target: Gal(b1-3)Gal(b1-4)GlcNAc
# How it was run: as §1
# Gal(b1-3)GalNAc = target: Gal(b1-3)GalNAc
# How it was run: as §1
# [10] = target: Gal(b1-3)GalNAc(a1-3)[Fuc(a1-2)]Gal(b1-4)Glc
# How it was run: as §1
# [11] = target: Gal(b1-3)GalNAc(a1-3)[Fuc(a1-2)]Gal(b1-4)GlcNAc
# How it was run: as §1
# Gal(b1-3)GalNAc(b1-3)Gal = target: Gal(b1-3)GalNAc(b1-3)Gal
# How it was run: as §1
# [12] = target: Gal(b1-3)GalNAc(b1-3)Gal(a1-4)Gal(b1-4)Glc
# How it was run: as §1
# [13] = target: Gal(b1-3)GalNAc(b1-4)Gal(b1-4)Glc
# How it was run: as §1
# [14] = target: Gal(b1-3)GalNAc(b1-4)[Neu5Ac(a2-3)]Gal(b1-4)Glc
# How it was run: as §1
# Gal(b1-3)GlcNAc = target: Gal(b1-3)GlcNAc
# How it was run: as §1
# [15] = target: Gal(b1-3)GlcNAc(a1-3)Gal(b1-4)GlcNAc
# How it was run: as §1
# [16] = target: Gal(b1-3)GlcNAc(a1-6)Gal(b1-4)GlcNAc
# How it was run: as §1
# Gal(b1-3)GlcNAc(b1-2)Man = target: Gal(b1-3)GlcNAc(b1-2)Man
# How it was run: as §1
# [17] = target: Gal(b1-3)GlcNAc(b1-2)Man(a1-3)[Gal(b1-3)GlcNAc(b1-2)Man(a1-6)]Man(b1-4)GlcNAc(b1-4)GlcNAc
# How it was run: as §1
# [18] = target: Gal(b1-3)GlcNAc(b1-2)Man(a1-3)[Gal(b1-3)GlcNAc(b1-2)Man(a1-6)]Man(b1-4)GlcNAc(b1-4)[Fuc(a1-6)]GlcNAc
# How it was run: as §1
# [19] = target: Gal(b1-3)GlcNAc(b1-2)Man(a1-3)[GlcNAc(b1-4)][Gal(b1-3)GlcNAc(b1-2)Man(a1-6)]Man(b1-4)GlcNAc(b1-4)GlcNAc
# How it was run: as §1
# [20] = target: Gal(b1-3)GlcNAc(b1-2)[Gal(b1-3)GlcNAc(b1-6)]Man(a1-6)[Gal(b1-3)GlcNAc(b1-2)Man(a1-3)]Man(b1-4)GlcNAc(b1-4)GlcNAc
# How it was run: as §1
# [21] = target: Gal(b1-3)GlcNAc(b1-3)Gal(b1-3)GlcNAc
# How it was run: as §1
# [22] = target: Gal(b1-3)GlcNAc(b1-3)Gal(b1-4)Glc
# How it was run: as §1
# [23] = target: Gal(b1-3)GlcNAc(b1-3)Gal(b1-4)GlcNAc
# How it was run: as §1
# [24] = target: Gal(b1-3)GlcNAc(b1-3)Gal(b1-4)GlcNAc(b1-2)Man(a1-3)[Gal(b1-3)GlcNAc(b1-3)Gal(b1-4)GlcNAc(b1-2)Man(a1-6)]Man(b1-4)GlcNAc(b1-4)GlcNAc
# How it was run: as §1
# [25] = target: Gal(b1-3)GlcNAc(b1-3)Gal(b1-4)GlcNAc(b1-2)[Gal(b1-3)GlcNAc(b1-3)Gal(b1-4)GlcNAc(b1-6)]Man(a1-6)[Gal(b1-3)GlcNAc(b1-3)Gal(b1-4)GlcNAc(b1-2)Man(a1-3)]Man(b1-4)GlcNAc(b1-4)[Fuc(a1-6)]GlcNAc
# How it was run: as §1
# [26] = target: Gal(b1-3)GlcNAc(b1-3)Gal(b1-4)GlcNAc(b1-3)Gal(b1-4)GlcNAc(b1-2)[Gal(b1-3)GlcNAc(b1-3)Gal(b1-4)GlcNAc(b1-3)Gal(b1-4)GlcNAc(b1-6)]Man(a1-6)[Gal(b1-3)GlcNAc(b1-3)Gal(b1-4)GlcNAc(b1-3)Gal(b1-4)GlcNAc(b1-2)Man(a1-3)]Man(b1-4)GlcNAc(b1-4)[Fuc(a1-6)]GlcNAc
# How it was run: as §1
# [27] = target: Gal(b1-3)GlcNAc(b1-3)Gal(b1-4)GlcNAc(b1-6)[Gal(b1-3)GlcNAc(b1-3)]Gal(b1-4)Glc
# How it was run: as §1
# [28] = target: Gal(b1-3)GlcNAc(b1-3)Gal(b1-4)[Fuc(a1-3)]GlcNAc
# How it was run: as §1
# [29] = target: Gal(b1-3)GlcNAc(b1-3)Gal(b1-4)[Fuc(a1-3)]GlcNAc(b1-6)[Gal(b1-3)GlcNAc(b1-3)]Gal(b1-4)Glc
# How it was run: as §1
# [30] = target: Gal(b1-3)GlcNAc(b1-3)GalNAc
# How it was run: as §1
# [31] = target: Gal(b1-3)GlcNAc(b1-6)Gal(b1-4)GlcNAc
# How it was run: as §1
# [32] = target: Gal(b1-3)GlcNAc(b1-6)GalNAc
# How it was run: as §1
# [33] = target: Gal(b1-3)GlcNAc(b1-6)[Gal(b1-3)]GalNAc
# How it was run: as §1
binder,measurement,setting,value
B1,glycan array binding signal (z-score),[1],-0.148
same,glycan array binding signal (z-score),[2],-0.082
same,glycan array binding signal (z-score),[3],-0.123
same,glycan array binding signal (z-score),[4],-0.194
same,glycan array binding signal (z-score),[5],-0.105
same,glycan array binding signal (z-score),Gal(a1-3)GalNAc,-0.118
same,glycan array binding signal (z-score),[6],-0.073
same,glycan array binding signal (z-score),[7],-0.094
same,glycan array binding signal (z-score),Gal(a1-4)Gal(b1-4)Glc,0.59
same,glycan array binding signal (z-score),Gal(a1-4)Gal(b1-4)GlcNAc,1.8
same,glycan array binding signal (z-score),[8],22.9
same,glycan array binding signal (z-score),[9],2.92
same,glycan array binding signal (z-score),Gal(a1-4)GlcNAc,-0.118
same,glycan array binding signal (z-score),Gal(a1-6)Glc,-0.108
same,glycan array binding signal (z-score),Gal(b1-2)Gal,-0.01
same,glycan array binding signal (z-score),Gal(b1-3)Gal,-0.106
same,glycan array binding signal (z-score),Gal(b1-3)Gal(b1-4)GlcNAc,-0.138
same,glycan array binding signal (z-score),Gal(b1-3)GalNAc,-0.084
same,glycan array binding signal (z-score),[10],-0.163
same,glycan array binding signal (z-score),[11],-0.094
same,glycan array binding signal (z-score),Gal(b1-3)GalNAc(b1-3)Gal,0.019
same,glycan array binding signal (z-score),[12],-0.115
same,glycan array binding signal (z-score),[13],-0.093
same,glycan array binding signal (z-score),[14],-0.132
same,glycan array binding signal (z-score),Gal(b1-3)GlcNAc,-0.102
same,glycan array binding signal (z-score),[15],-0.169
same,glycan array binding signal (z-score),[16],-0.128
same,glycan array binding signal (z-score),Gal(b1-3)GlcNAc(b1-2)Man,-0.019
same,glycan array binding signal (z-score),[17],-0.036
same,glycan array binding signal (z-score),[18],-0.109
same,glycan array binding signal (z-score),[19],-0.109
same,glycan array binding signal (z-score),[20],-0.116
same,glycan array binding signal (z-score),[21],-0.152
same,glycan array binding signal (z-score),[22],1.3
same,glycan array binding signal (z-score),[23],-0.165
same,glycan array binding signal (z-score),[24],0.009
same,glycan array binding signal (z-score),[25],0.062
same,glycan array binding signal (z-score),[26],0.157
same,glycan array binding signal (z-score),[27],-0.133
same,glycan array binding signal (z-score),[28],-0.047
same,glycan array binding signal (z-score),[29],-0.188
same,glycan array binding signal (z-score),[30],-0.064
same,glycan array binding signal (z-score),[31],-0.099
same,glycan array binding signal (z-score),[32],-0.082
same,glycan array binding signal (z-score),[33],0.25

# Source: the supplement of paper PMC8728848
